PubChem BioAssay AID504332 (National Center for Advancing Translational Sciences (NCATS), 2011)
About 31,000 (8.9%) of roughly 350,000 compounds were called active. Inconclusive means that the source gave no clear call. Such entries were picked first, then a sample of the others. Calls follow the shape of the dose curve; as a rule, active = well fitted inhibition curve with a large enough effect; inconclusive = small, poorly fitted or top-dose-only effect; inactive = no such curve, though single readings can be large or run the other way. Where the call is inconclusive, the potency comes from a doubtful curve fit.
% is scaled to controls: 0 for no effect and ±100 for the full control effect; potency is read from the fitted curve at half-maximal effect; tags tell the direction and shape of the fitted curve.
Also: nearly all actives have a fitted effect of over 75% in size.

What follows are molecules tested against Histone-lysine N-methyltransferase EHMT2 (Homo sapiens) (UniProt Q96KQ7) (assay: qHTS Assay for Inhibitors of Histone Lysine Methyltransferase G9a). Conditions: G9a H3K9 monomethylation, AlphaScreen, 2 h; activity, negative = inhibition: at 59 µM (top of the series) unless noted.
UniProt Q96KQ7, sequence (Q96KQ7 whole entry, looked up): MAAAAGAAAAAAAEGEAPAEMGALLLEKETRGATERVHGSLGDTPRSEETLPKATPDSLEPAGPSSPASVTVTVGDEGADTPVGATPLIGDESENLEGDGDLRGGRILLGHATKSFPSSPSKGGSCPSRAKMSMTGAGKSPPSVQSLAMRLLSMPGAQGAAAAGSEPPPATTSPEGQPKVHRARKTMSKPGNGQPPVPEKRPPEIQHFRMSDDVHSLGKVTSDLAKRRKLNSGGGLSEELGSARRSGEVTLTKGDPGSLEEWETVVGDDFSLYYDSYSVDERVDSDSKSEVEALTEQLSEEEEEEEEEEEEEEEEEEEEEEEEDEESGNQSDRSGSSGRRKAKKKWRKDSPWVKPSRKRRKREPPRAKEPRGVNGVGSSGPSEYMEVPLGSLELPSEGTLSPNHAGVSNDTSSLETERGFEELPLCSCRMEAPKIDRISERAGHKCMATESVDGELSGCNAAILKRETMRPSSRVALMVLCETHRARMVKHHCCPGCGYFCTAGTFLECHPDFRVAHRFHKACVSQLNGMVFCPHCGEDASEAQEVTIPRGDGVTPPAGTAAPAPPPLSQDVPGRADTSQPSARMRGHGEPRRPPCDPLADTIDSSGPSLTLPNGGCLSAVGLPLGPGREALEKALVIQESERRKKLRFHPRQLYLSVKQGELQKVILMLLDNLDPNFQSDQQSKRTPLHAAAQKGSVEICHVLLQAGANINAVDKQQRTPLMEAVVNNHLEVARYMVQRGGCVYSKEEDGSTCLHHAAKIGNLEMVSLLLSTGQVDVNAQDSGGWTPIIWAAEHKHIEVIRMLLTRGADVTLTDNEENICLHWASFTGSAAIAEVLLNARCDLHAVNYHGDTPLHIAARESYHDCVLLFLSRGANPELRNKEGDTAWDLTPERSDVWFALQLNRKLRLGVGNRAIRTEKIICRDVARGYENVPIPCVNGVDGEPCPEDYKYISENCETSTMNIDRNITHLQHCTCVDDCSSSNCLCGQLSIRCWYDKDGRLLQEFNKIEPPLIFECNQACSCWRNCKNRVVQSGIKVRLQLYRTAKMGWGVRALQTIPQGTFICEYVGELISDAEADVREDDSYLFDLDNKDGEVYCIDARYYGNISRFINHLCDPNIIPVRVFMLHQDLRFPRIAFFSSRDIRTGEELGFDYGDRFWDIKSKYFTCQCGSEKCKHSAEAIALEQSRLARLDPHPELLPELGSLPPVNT
Summary of the method: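 Enzyme 20 nM + cpd, 15 min RT; add b-H3K9 pep 500 nM / SAM 20 uM; 2 h RT; anti-H3K9me1 Ab 0.5 ug/mL + SA donor / anti-rabbit acceptor beads 20 ug/mL each, 10 min; AlphaScreen read.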
`COc1cc2[nH]c(=S)n(NC(=O)c3ccccc3)c(=O)c2cc1OC` was tested, and the Potency was inconclusive: 0.891 µM [inhibitor, single point]. With `COc1ccc(OC)c(C2CC(=O)NC(SC)=C2C#N)c1` (stereo unspecified) the Potency was inconclusive: 79.4 µM [inhibitor, partial curve, poor fit]. `CCn1nc(C)c2c(-c3ccccc3)cc(=O)n(C(C)C(=O)NCCc3ccc(OC)c(OC)c3)c21` (stereo unspecified) was tested, and the “activity, negative = inhibition” value was inactive: 3.11%. With `O=C(N/N=C/c1ccco1)c1ccccn1` the Potency was inconclusive: 2.24 µM [inhibitor, full curve, poor fit]. `O=S(=O)(c1ccccc1)N1CCC[C@@]2(CCN(c3ncccn3)C2)C1` was tested, and the activity, negative = inhibition was inactive: -1.29% [at 12.7 µM]. For `CCOc1cc(-c2ccc(OC(=O)c3ccc(OC)cc3)c(OC)c2)cc(=O)c2c(C)oc(C)c12`, the Potency was active: 15.8 µM. In the case of `CCSc1nnc(NS(=O)(=O)c2ccc(C)cc2)s1`, the Potency is reported as inconclusive: 20 µM [inhibitor, single point]. `CCOc1ccc(NC(=O)COc2ccc(C(=O)NCc3cccc(OC)c3)cc2OC)cc1` was tested, and the Potency was inconclusive: 28.2 µM [inhibitor, single point]. In the case of `COc1ccc2c3c(cccc13)N(C)N=C2C`, the Potency is reported as inconclusive: 1.58 µM [inhibitor, full curve, poor fit]. `CCCC(=O)Nc1nnc(-c2ccccc2)o1` was tested, and the Potency was active: 39.8 µM. For `O=C(O)CC(NC(=O)C12CC3CC(CC(C3)C1)C2)c1ccc2c(c1)OCO2` (stereo unspecified), the Potency was inconclusive: 44.7 µM [inhibitor, partial curve, poor fit]. With `Cc1ccc(-n2nc(C)c3c(C)cc(=O)n(CC(=O)NC(C)c4ccccc4)c32)cc1` (stereo unspecified) the “activity, negative = inhibition” value was inactive: 1.68%. With `COc1ccc(S(=O)(=O)N(CC(=O)Nc2cc(Cl)ccc2C)Cc2ccccc2)cc1OC` the “activity, negative = inhibition” value was inactive: 0.812%. For `Cc1ccc(NC(=O)CO/N=C/c2ccc(N(C)C)cc2)cc1`, the Potency was inconclusive: 39.8 µM [inhibitor, single point]. `CCc1cccc(C)c1NC(=S)NCCc1c(C)[nH]c2ccc(C)cc12` was tested, and the Potency was active: 44.7 µM. `CC(/C=C\c1ccccc1)=C/C(=O)O` was tested, and the “activity, negative = inhibition” value was inactive: 20.9% [at 102 µM]. With `Cc1cccc(NC(=O)NCc2ccc3c(c2)cc(C)n3C)c1` the Potency was inconclusive: 28.2 µM [inhibitor, single point]. In the case of `CC[n+]1c(/C=C/Nc2ccccc2)oc2ccccc21`, the Potency is reported as active: 50.1 µM. With `CC(NC(=O)c1cn(C(C)c2ccccc2F)nn1)c1ccncc1` (stereo unspecified) the “activity, negative = inhibition” value was inactive: 7.56% [at 102 µM]. With `CN(C)c1ccc(CN2CCCCCC2)cc1` the Potency was inconclusive: 22.4 µM [inhibitor, single point]. In the case of `Cc1ccccc1-n1nnnc1SCC(=O)NNC(=O)c1ccc(NC(=O)CC#N)cc1`, the activity, negative = inhibition is reported as inactive: 10.6% [at 12.7 µM]. In the case of `COc1ccc(N2CCN(C(CNC(=O)C(=O)NCCCn3ccnc3)c3ccco3)CC2)cc1` (stereo unspecified), the Potency is reported as inconclusive: 35.5 µM [inhibitor, partial curve, poor fit]. `Clc1ccccc1Nc1nc(-c2ccncc2)nc2ccccc12` was tested, and the Potency was inconclusive: 89.1 µM [inhibitor, single point]. `CCOP(=O)(OCC)C(C#N)=C1SCN(c2ccc(Cl)cc2)CS1` was tested, and the activity, negative = inhibition was inconclusive: -121% [inhibitor]. `COc1cc(Nc2cc(C)nc3ncnn23)cc(OC)c1` was tested, and the Potency was inconclusive: 31.6 µM [inhibitor, single point]. `Cc1cccc(N2CCN(C(c3ccc(N(C)C)cc3)c3nnnn3C(C)(C)C)CC2)c1C` (stereo unspecified) was tested, and the Potency was inconclusive: 3.55 µM [inhibitor, single point]. In the case of `O=[N+]([O-])c1nn(-c2ccc3c(c2)OCCO3)n(O)c1=NC1CCCC1`, the “activity, negative = inhibition” value is reported as inactive: -48.4% [at 102 µM]. `COc1ccc(C(=O)CSc2nnc(CNC(=O)c3ccccc3)o2)cc1` was tested, and the “activity, negative = inhibition” value was inactive: 3.09% [at 102 µM]. In the case of `CCOC(=O)C1Oc2ccccc2C(c2ccoc2)=C1C(=O)OC` (stereo unspecified), the Potency is reported as inconclusive: 35.5 µM [inhibitor, single point]. For `Cc1ccc(N=C2NC(=O)CC(C(=O)Nc3cc(C(F)(F)F)ccc3Cl)S2)cc1` (stereo unspecified), the “activity, negative = inhibition” value was inactive: -24.8%. In the case of `COCCn1c(SCC(=O)NCCc2ccccc2)nnc1-c1ccco1`, the Potency is reported as active: 44.7 µM. For `CCC(=O)N1c2ccccc2CC1C(=O)NCc1ccc(N(C)C)cc1` (stereo unspecified), the Potency was inconclusive: 22.4 µM [inhibitor, partial curve, poor fit]. `CCS(=O)(=O)c1ncc(Cl)c(C(=O)Nc2ccccc2)n1` was tested, and the Potency was inconclusive: 28.2 µM [inhibitor, single point]. In the case of `CCCN1CCN(CCCNC(=O)c2ccc3nc(N4CCCCC4)sc3c2)CC1`, the Potency is reported as inconclusive: 89.1 µM [inhibitor, single point]. For `FC(F)(F)c1cccc(-c2nn[nH]n2)c1`, the Potency was inconclusive: 79.4 µM [inhibitor, partial curve, poor fit]. In the case of `OCCNCc1cccc2ccccc12`, the “activity, negative = inhibition” value is reported as inactive: -37.1%. With `Cc1cc(O)c(C(=O)/C=C/c2ccc(Cl)cc2)c(=O)o1` the activity, negative = inhibition was inactive: -7.1% [at 2.33 µM]. With `CC1CCCN(CC(=O)Nc2ccc(S(=O)(=O)NC3CCCCC3)cc2)C1` (stereo unspecified) the Potency was inconclusive: 0.112 µM [inhibitor, full curve, poor fit]. `CCCN(C(=O)C1CCN(S(=O)(=O)c2ccc(OC)c(OC)c2)CC1)C1CCS(=O)(=O)C1` (stereo unspecified) was tested, and the Potency was inconclusive: 89.1 µM [inhibitor, partial curve, poor fit]. In the case of `CCc1nn(CC(=O)N(C)Cc2ccccc2)c(=O)c2cc3sccc3n12`, the “activity, negative = inhibition” value is reported as inactive: 3.67%. `Cc1ccc(CSCCC(=O)NCc2ccc(F)cc2Cl)cc1` was tested, and the “activity, negative = inhibition” value was inactive: -2.47%. `Cc1cc(/C=C2\SC(=S)N(C)C2=O)c(C)n1-c1ccc(O)cc1` was tested, and the Potency was inconclusive: 25.1 µM [inhibitor, partial curve, poor fit]. With `CCc1nn(C(CC)C(=O)NCCCN2CC(C)CC(C)C2)c(=O)c2cc3oc(C)cc3n12` (stereo unspecified) the Potency was inconclusive: 35.5 µM [inhibitor, single point]. In the case of `CCn1nc(C)cc1C(=O)N1CCCC(C(=O)c2ccc(OC)cc2C)C1` (stereo unspecified), the “activity, negative = inhibition” value is reported as inactive: 1.84% [at 102 µM]. For `CCCCOc1ccc(C2=CSC3=NCCN23)cc1[N+](=O)[O-]`, the Potency was inconclusive: 0.708 µM [inhibitor, full curve, poor fit]. `COc1cccc(CN2CCN(C(=O)c3cc(-c4ccccn4)nc4ccc(Cl)cc34)CC2)c1` was tested, and the Potency was inconclusive: 6.31 µM [inhibitor, single point].
